In article PMC4336329 (PLoS ONE, 2015):
In all, about 310,000 compounds went through this assay and about 2,200 (0.71%) showed an effect of 50% or more. Effects have a minus sign here. The list shows a part of the results.

target: human ether-à-go-go-related gene (hERG) potassium channel (human, UniProt Q12809); experiment: primary screen, population patch clamp on CHO cells stably expressing hERG
Sequence (Q12809 whole entry, looked up): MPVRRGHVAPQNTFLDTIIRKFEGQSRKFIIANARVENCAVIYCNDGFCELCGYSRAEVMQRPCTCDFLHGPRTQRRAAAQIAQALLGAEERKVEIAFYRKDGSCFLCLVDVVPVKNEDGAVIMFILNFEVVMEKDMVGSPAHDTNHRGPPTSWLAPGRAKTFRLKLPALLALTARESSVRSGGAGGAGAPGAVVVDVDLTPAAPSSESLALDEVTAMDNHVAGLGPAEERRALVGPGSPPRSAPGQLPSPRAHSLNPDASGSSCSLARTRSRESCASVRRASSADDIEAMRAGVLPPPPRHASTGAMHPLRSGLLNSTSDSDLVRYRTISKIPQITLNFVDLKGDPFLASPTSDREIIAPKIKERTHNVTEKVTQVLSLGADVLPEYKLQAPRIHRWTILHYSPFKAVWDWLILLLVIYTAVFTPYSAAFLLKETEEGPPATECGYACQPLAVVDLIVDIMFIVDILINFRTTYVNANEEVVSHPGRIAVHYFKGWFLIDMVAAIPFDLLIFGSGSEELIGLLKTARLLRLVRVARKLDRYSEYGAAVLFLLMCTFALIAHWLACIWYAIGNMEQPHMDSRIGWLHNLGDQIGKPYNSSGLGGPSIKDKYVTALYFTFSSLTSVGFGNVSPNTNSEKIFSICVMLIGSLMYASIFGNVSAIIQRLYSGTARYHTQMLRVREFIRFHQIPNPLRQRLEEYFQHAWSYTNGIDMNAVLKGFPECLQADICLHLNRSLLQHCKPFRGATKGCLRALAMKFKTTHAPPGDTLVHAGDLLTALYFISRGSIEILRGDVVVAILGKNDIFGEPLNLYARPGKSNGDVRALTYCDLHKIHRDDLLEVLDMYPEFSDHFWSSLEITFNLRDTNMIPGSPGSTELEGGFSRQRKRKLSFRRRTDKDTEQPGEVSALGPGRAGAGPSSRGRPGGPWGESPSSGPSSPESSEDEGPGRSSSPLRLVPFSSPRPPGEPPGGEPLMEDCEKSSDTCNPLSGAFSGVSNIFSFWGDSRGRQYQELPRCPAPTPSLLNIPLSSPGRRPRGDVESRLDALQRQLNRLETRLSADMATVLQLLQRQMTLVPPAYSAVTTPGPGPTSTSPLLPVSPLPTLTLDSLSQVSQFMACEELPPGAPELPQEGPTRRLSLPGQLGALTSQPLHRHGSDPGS

Structure (SMILES)	hERG current change (%, negative = inhibition) at 1uM
O=C(NCC(c1cccnc1)N1CCN(c2ccc(F)cc2)CC1)C1CCCCC1 (centres unmarked)	-2.23%
COc1ccc(OC)c(-c2nnc(-c3ccc(C)o3)o2)c1	5.37%
O=C1N(c2cccc3ccccc23)C(c2ccccc2)N2CCCN12 (centres unmarked)	3.51%
Cc1nc(S(=O)(=O)Cc2ccccc2)nc2c1CCC2	9.14%
CCC(=O)c1cn(CC(=O)Nc2ccc(C)cc2C)c2ccccc12	15.3%
COc1ccc(CN2CCN(S(=O)(=O)c3ccc(NC(C)=O)cc3)CC2)cc1OC.O=C(O)C(=O)O	-2.26%
CCc1ccccc1NC(=S)Nc1cc(OC)c(NC(=O)C(C)C)cc1OC	10.8%
O=C(COc1ccccc1)NNC(=O)c1cc2ccccc2o1	7%
COCCn1c(=O)c2c(nc3n2CCCN3Cc2ccccc2)n(C)c1=O	-3.03%
COc1ccc(Cl)cc1S(=O)(=O)N(C)CC(=O)N1CCOCC1	21.9%
O=C(O)CNC(=O)CC12CC3CC(CC(C3)C1)C2	12.8%
Cc1ccc(NC(=O)c2cc3c(CO)cnc(C)c3oc2=Nc2cccc(C(N)=O)c2)cc1	10%
Cc1ccc(NC(=O)CC2C(=O)N(Cc3ccccc3)C(=S)N2NC(=O)c2ccccc2)c(C)c1 (centres unmarked)	17.8%
CCC1CCCCN1Cc1c(O)ccc2c(=O)c(-c3ccccc3)coc12 (centres unmarked)	2.84%
CS(=O)(=O)N1CCC(C(=O)NCCN2CCN(Cc3ccccc3)CC2)CC1	17.5%
Cc1ccc(Cl)c(OCC(=O)NCC(c2cccs2)N2CCOCC2)c1 (centres unmarked)	6.76%
O=C(O)/C=C1\NC(=O)c2ccccc21	16.5%
Cn1cccc1Cc1nnc(SCC(=O)NCc2ccc3c(c2)OCO3)n1CCc1ccccc1	8.35%
COC(=O)C[C@H]1c2cc(C(F)(F)F)ccc2S(=O)(=O)N1Cc1ccc(OC)cc1	7.52%
CCOc1ccc(-n2cnnn2)cc1S(=O)(=O)NCCc1ccc(OC)c(OC)c1	10.5%
O=C(COC(=O)c1ccccc1OC(F)F)Nc1ccc2[nH]c(=O)[nH]c2c1	7.3%
CC(C)S(=O)(=O)C1=NSC2=NC(=O)/C(=C\c3ccc(-c4ccccc4)o3)C(=N)N21	6.17%

Structure (SMILES)	hERG current change (%, negative = inhibition) at 1uM
Cc1ccc(-c2nn3nnnc3c3ccccc23)cc1	12.9%
COc1ccccc1N1CCN(C(=O)C2C3C=CC4(CN(Cc5ccccc5Cl)C(=O)C24)O3)CC1 (centres unmarked)	-9.39%
Cc1c(C(=O)NCC2COc3ccccc3O2)oc2ccc(S(=O)(=O)N3CC(C)CC(C)C3)cc12 (centres unmarked)	12.1%
Cc1ccc(S(=O)(=O)NCC2CCC(C(=O)NCc3ccc4c(c3)OCO4)CC2)cc1 (centres unmarked)	6.44%
O=c1cc(-c2ccccc2)[nH]n1-c1nc2ccccc2s1	12.9%
O=C(NC1CCCCC1)C1CCCN1S(=O)(=O)c1ccc(Cl)cc1 (centres unmarked)	3.48%
CC1CN(C(=O)CN2C(=O)NC3(CCCC3)C2=O)C(=Nc2cccc(S(=O)(=O)N(C)C)c2)S1 (centres unmarked)	9.45%
Cc1ccn2c(=O)nc(SCC(=O)NC3CCCC3)nc2c1	14.6%
CCCCC1(Cc2ccc([N+](=O)[O-])cc2)C(=O)N(c2ccccc2)N(c2ccccc2)C1=O	8.69%
CCCCN(C)C(=O)CS(=O)(=O)Cc1nc(-c2cccc(OC)c2)oc1C	-1.55%
CN1CCN(CC(O)COc2ccccc2)CC1 (centres unmarked)	0.443%
CCCn1c(N)c(N(CCOC)C(=O)c2cccc(Cl)c2)c(=O)[nH]c1=O	30.3%
CCCC(=O)NC1CCCc2c1cnn2-c1ccc(C)c(C)c1 (centres unmarked)	-21%
O=S1(=O)CC(O)C(Nc2ccccc2Cl)C1 (centres unmarked)	-6.4%
Cc1ccc(NC(=O)Cn2c(=O)cnc3ccccc32)cc1S(=O)(=O)N1CCOCC1	3.77%
O=C(CCCc1nc(-c2ccccc2Cl)no1)NC1CCCCC1	11.9%
O=C(COc1cccc(Cl)c1)NNC(=S)Nc1ccccc1	10.1%
CCOC(=O)c1ccc(-c2cc(C)no2)[nH]1	8.66%
Cc1ccccc1CC1(CO)CCCN(Cc2ccn[nH]2)C1 (centres unmarked)	8.62%
Cn1c(=O)c2c(nc(N3CCCCCC3)n2Cc2cccc3ccccc23)n(C)c1=O	17.1%
O=C(NCCCn1ccnc1)c1cc2cc([N+](=O)[O-])ccc2oc1=O	-14.2%
CCn1c(=O)c(=O)n(CC)c2cc(S(=O)(=O)Nc3cccc(OC)c3)ccc21	12%

Structure (SMILES)	hERG current change (%, negative = inhibition) at 1uM
C=CCNC(=S)N/N=C/c1ccc(C)c([N+](=O)[O-])c1	13.5%
N#CC1(NC(=O)CSc2nc3ccc([N+](=O)[O-])cc3s2)CCCCC1	-18.4%
c1ccc(C2(Cn3ccc4ccccc43)OCCO2)cc1	8.29%
COc1ccc(CCNCc2sccc2C)cc1.Cl	3.21%
CCC(C)NC(=O)CS(=O)Cc1nc(-c2cccc(C)c2)oc1C (centres unmarked)	14.8%
CCC(C(=O)Nc1ccc(C)cc1)c1ccccc1 (centres unmarked)	7.21%
[2H]C([2H])(CCOS(N)(=O)=O)c1ccccc1	4.94%
CCOC(=O)C1CCCN(C(=O)c2ccc([N+](=O)[O-])c(C)c2)C1 (centres unmarked)	-0.659%
Cc1cc(C(C)(C)C)ccc1OCC(=O)N/N=C\c1c(C)n(C)n(-c2ccccc2)c1=O	-12.5%
Cn1nc(C(=O)NCc2ccccc2)cc1C(=O)NCc1ccccc1	16.9%
COCCN(CCOC)C(=O)COC(=O)c1ccc(Cl)c(S(=O)(=O)N(C)c2ccccc2)c1	5.09%
COc1ccc(NC(=O)CSCC(=O)N2CCN(c3cccc(C(F)(F)F)c3)CC2)cc1	3.36%
CCCCC1=CC2=C(c3ccco3)C(=O)C(C)(OC(=O)c3ccc(OC)cc3)C(=O)C2=CN1CC(C)C (centres unmarked)	13.7%
COc1cc(NC(=O)[C@H](C)NC(=O)N2CCn3c2nc2ccccc23)cc(OC)c1	2.53%
CCCSc1ccc([C@H]2N[C@@](C)(C(=O)OC)[C@H]3C(=O)N(C)C(=O)[C@@H]23)cc1OC.O=C(O)C(F)(F)F	7.32%
CCCCCn1c(=O)[nH]c2cc(C(=O)N3CCN(Cc4ccc5c(c4)OCO5)CC3)ccc2c1=O	8.6%
Cc1ccc(S(=O)(=O)N2CCN(C(=O)N(C)C)CC2)cc1	19.9%
CN(CC(=O)Nc1ccc(F)c(F)c1F)C(=O)c1ccc2c(c1)OCCO2	8.45%
COc1ccc(CNC(=O)CCn2c(=O)oc3ccccc32)cc1	12.2%
COc1cccc(C(=O)NC(=S)Nc2ccc(N(C)C)cc2)c1	8.65%
NC(=O)Cn1c2[n+](c3ccccc31)CC(O)CS2.[Br-] (centres unmarked)	15.6%
CC(C)CC1NC2(C(=O)N(C)c3ccccc32)C2C(=O)N(C(C)C)C(=O)C12 (centres unmarked)	7.02%

Structure (SMILES)	hERG current change (%, negative = inhibition) at 1uM
Cc1ccc([C@@H]2C[C@H]3CN(Cc4cccc(Cl)c4)C(=O)[C@]34CCCN24)o1	-0.451%
COc1cc(N(C)C)c(NC(C)=O)cc1C(=O)O	20.6%
O=[N+]([O-])c1ccc(N2CCN(C(=S)Nc3cccc(F)c3)CC2)cc1	-26.9%
COc1ccc(-c2cc(C(=O)N3CCOCC3)no2)cc1OC	-2.34%
O=C(COC(=O)CNC(=O)c1ccccc1)Nc1ccccc1Cl	11.4%
CCC(=O)N1CCc2cc(Br)cc(S(=O)(=O)NCc3ccco3)c21	-2.36%
COc1ccc(NC(=O)c2cccc(S(=O)(=O)Nc3ccc(Br)cc3)c2)cn1	11.3%
O=C(COc1ccc(Cl)cc1)NCc1nnc2c3ccccc3c(-c3ccccc3)nn12	-2.65%
Cn1c(=O)c2c(nc(Br)n2CCCc2ccccc2)n(C)c1=O	6.47%
CCOc1ccc(C(=O)N2CCCC(c3nc(-c4cccs4)no3)C2)cc1 (centres unmarked)	9.92%
Cc1ccc(Cc2cnc(NC(=O)CN3CCOCC3)s2)cc1Cl	-3.09%
Cn1c(N)c(C(=O)COC(=O)CCC2CCCCC2)c(=O)n(C)c1=O	-25.3%
Cc1cc(C[n+]2cc(Cl)ccc2N)c2ncccc2c1.[Br-]	-14%
COc1ccc(C(C)(C)C)cc1NC(=O)c1ccoc1C	1.62%
NS(=O)(=O)c1ccc(NCc2cc(Cl)ccc2OCc2ccc(F)cc2)cc1	10%
O=C(CSc1ccc(Cl)cc1)N1CCC(c2nc3ccccc3s2)CC1	-4.9%
NC1=NC(=O)/C(=C/c2ccc(Cl)cc2Cl)S1	8.74%
CCN1CC(c2ccccc2)C(c2ccc(Cl)cc2)=N1 (centres unmarked)	-5.14%
COC(=O)C1=C(C)NC(=O)NC1c1ccc(OC(=O)c2ccco2)cc1 (centres unmarked)	7.7%
CC(=O)OC[C@H]1O[C@@H](O/N=C/[C@@H](C)[C@H](OCc2ccccc2)C(C)C)[C@H](OC(C)=O)[C@@H](OC(C)=O)[C@@H]1OC(C)=O	5.94%
